# The supplement of paper PMC11417369
# Some of the results follow.
# Tested on: PfAP2-HC AP2 domain (GST-tagged)
# Assay: gcPBM binding intensity (ln(normalized median fluorescence intensity)); higher = stronger DNA binding
# In short: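 For binding intensity, the highest Masliner-normalised natural-log median intensity across replicate spots of either probe orientation was taken. Protein bound to the array was stained with Alexa488 anti-GST antibody and scanned at 488 nm. The protein, GST-tagged P. falciparum DNA-binding domains from E. coli at about 25 μg on average, had been applied for 1 h to an Agilent 4 × 180k array of primer-extended double-stranded 36-bp intergenic genomic probes and negative controls.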
row,Sequence,gcPBM binding intensity (ln)
1,TATATATATATATATATTTTAAATGATATAAATGGT [TGCATGCA_negctrl_site152],9.63
2,AATTAATTAAATTAATGTACACATATATTTGTATTC [XGTACX_site2341],9.68
3,CCACATTAAAAAAAAACACACATATATTATATATAT [CACACA_site1155],9.85
4,AATACATGAATATGTAGTACAGAAAAAAAAAATATA [XGTACX_site1945],9.78
5,AAAATGACATAATGGGGAATAGACATATACATAAAT [CACACA_negctrl_site1669],9.81
6,GTTACAGAGAATGTTGTGCACATATCAATAATATAT [GTGCAC_site9671],9.74
7,TATAAACCATAATTAACACACAAAATAAGTTACATA [CACACA_site3227],9.89
8,ATAATAATAAAAATTATACATAAGTATATGCACATA [XGTACX_negctrl_site583],9.63
9,TTTTGCTTTTTTTTTCTTTTTTGTTTTATATATATT [CACACA_negctrl_site103],9.89
10,ACATATGGTATTTAAACACACAAAAAAGAAAGAAAA [CACACA_site991],9.87
11,AAATGGTAAGAAAATAAATAAAGTTCTACCACATAA [CACACA_negctrl_site1542],9.85
12,TAGAAAGAATATAATTGTACAAATGTTGATAGATAA [XGTACX_site7259],9.75
13,ATATATATATATATATATATATATGTTTGATTTTTT [XGTACX_negctrl_site98],9.48
14,ATTTTTCTTTTATTAACACACATATAAATAAATACA [CACACA_site2876],9.55
15,TGGGCGTCATAATGAACACACAATTATATTATGACT [CACACA_site3910],9.59
16,TTACACAAATAGCTGCATTTATAAAATACAATTAAA [CACACA_negctrl_site241],9.51
17,TTTTGTCAATTTTAGATTTTTCAATACATGGATATT [CACACA_negctrl_site319],9.57
18,ATATATATATATTTATGTACGAATATGTTTAATTTA [XGTACX_site3986],9.57
19,ATATATATAATAATATGTACGGAAAAAGCTTAAGCT [XGTACX_site5661],9.78
20,AAATATATATATTTACGTACATATATACAAATAGAG [XGTACX_site6067],9.72
21,TTATAAAGAACACAGACACACAAAGAAAGAACCAAT [CACACA_site4175],10.2
22,CACAAATAAATACATACACACATATATACTCATATA [CACACA_site4379],9.99

row,Sequence,gcPBM binding intensity (ln)
1,TGTCACTACAAATGAGTGCATTAAATAATTTGGAAA,9.41
2,ATATGCAAAGAGTATAATCAAAATGTAAATAAATAA [GTGCAC_negctrl_site141],9.72
3,AATATTATTTATATTTGTACACAGTAATATAAAATA [XGTACX_site4884],9.57
4,CCATAGATATTTTATACACACATATAATATATTAAG [CACACA_site4363],9.71
5,AAAAATAAAGAAACAGGTACGCATATATTAAGATAT [XGTACX_site8097],9.98
6,AATATATTCCACATGTGTACATATATATATATATAT [XGTACX_site8006],10.1
7,TTTCCTTCTACAAAAAATTTTATCAAGAGGAAGTAC [CACACA_negctrl_site926],9.29
8,AATATATATCATCACACACACATACATAAATATATA [CACACA_site184],10.3
9,AGTTTATTTGTAAAAAGTACATATTTAAGAAAACTT [XGTACX_site2318],9.5
10,TTCTAACTCTAACAAGTGCAATATATATACATAATA,9.33
11,AAATTTGGCAAACACACACACACACCCACACCCACA [CACACA_site8095],11.4
12,GAAAATAAAAAAAATAAAAAAAATAAAAAAAATTAT [XGTACX_negctrl_site443],9.48
13,TAAATATCTAAAGACTGTACAATTAAATATAAACAT [XGTACX_site1450],9.62
14,TTTTGTAACCTATGCACGCACACAAGAAAAAAACAA [CACACA_site3776],9.84
15,TATATTATATATATGTGTACATATAAATGTAACAAA [XGTACX_site5025],9.58
16,AATACATATAAAAGTACACACACACCCATATATATA [CACACA_site8220],10.5
17,ATAGAATACATATATGAACACACAGAGTTTTAAAAA [CACACA_site8879],9.9
18,TTTTTTTTTTGATGTTGTACATATATACTATATAAT [XGTACX_site1332],9.65
19,GTTCATATCTTTTGAGCACACATATATATATATAAA [CACACA_site9099],9.76
20,ATAAGTAAAAATAAAAAAAAAATATATATATATATA [CACACA_negctrl_site1816],9.59
21,ATGATTATAATTTAAAATATTTTACATAACCATTTC [GTGCAC_negctrl_site297],9.52
22,TTTAGCTATTATAGCTGTACAATGATAAAATAAATT [XGTACX_site6318],9.29

row,Sequence,gcPBM binding intensity (ln)
1,AATGAATCCTTATATACACACATTATTATATTATAT [CACACA_site3108],10
2,TTTTTGTTCTATATGGTGCATGTTTATATTCGTATT,9.95
3,ATTAGCAACATTGATAAATATAAACACACGAAAACA [TGCATGCA_negctrl_site97],10.1
4,ATACCATAAATATTGTGTACATAAATATGTTAGTAA [XGTACX_site6077],9.66
5,TTTTAGAAATTTACTAAACTTTATATAACTATTGAA [TGCATGCA_negctrl_site280],9.45
6,CATGTTTATGCCGTTTGTACATATATATCTAAAAAA [XGTACX_site4336],9.41
7,CACGTATATATATATACACACACATATATATATGTA [CACACA_site7948],9.97
8,GAGAAAAGGAAATTCACACATATAAAGAAAGATCTA [CACACA_site5420],9.55
9,ATTGATACATCCAATACACACTACATATAATGATGT [CACACA_site8561],9.9
10,TTTTTTATATATACATATATATAAATATATATAACT [GTGCAC_negctrl_site385],9.58
11,ATATTAATAATATATGCATGCATTAACATATTGAAA [TGCATGCA_site951],9.64
12,GTATGTATGTATATATGTACACATTATTATTTAATG [XGTACX_site5802],9.75
13,TATGGAGAAATAAATAGTACGTATTTTATTTAAAAA [XGTACX_site3129],9.68
14,AAAAATATAAAAATAGCACACATATATACATATATA [CACACA_site7901],9.89
15,ATGTTCGATGATAAATGTACAAAAATAATGGAAGTA [XGTACX_site1916],9.74
16,TATAAAAATATTGAAAGTACTTATTAAAATATTATT [XGTACX_site3701],9.59
17,TTTCCTAGCACATGCACACAAAAAAAAAAAAAAAAA [CACACA_site1404],9.48
18,CTTGCAAAAAGTATATGTACATATATATATATATAT [XGTACX_site5792],9.61
19,TGTTTGCTTATGTGTTAAATATATATATATATATAT [TGCATGCA_negctrl_site218],9.69
20,ATTTTAGGAAAAAAAAGTACATATAATTTTTTATAT [XGTACX_site6954],9.41
21,CGAACACAAACACAAACACACATCAGATATAAATAT [CACACA_site6736],10.1
22,TTTTTTTTGATATATACACACAATAAATAAATATAA [CACACA_site7400],9.53

row,Sequence,gcPBM binding intensity (ln)
1,ATTTATTATTATATCACACATAATATATTAAATGAT [CACACA_site5821],9.61
2,CTATAATATGGTATTACACACTGTTATAAGTATGGC [CACACA_site7068],9.76
3,ATATATTTTTTGAATACACACATATTATCTGTAATA [CACACA_site4826],9.69
4,TATAAATAGAGACACACACACATATAAATAAATATT [CACACA_site7854],10.4
5,TATATTTCTTCTATAACATGCAGATATATGAAAATA [TGCATGCA_site971],9.32
6,TAATGAAATATTATGTGTACTTAAAAATTATTAAAT [XGTACX_site5261],9.5
7,ATTATTAACATATATATACACACGAAAAAATTATAT [CACACA_site625],9.91
8,AGAATTATTTTATGTTTGCACTTTTTTTTTCTATAA [GTGCAC_site9876],9.84
9,TATTCCTAATTGACAACACACACAACAAAAAAGGGA [CACACA_site8350],10.3
10,GTTTTCATCCAAAAAAGTACATTTATTTTTATACGA [XGTACX_site1039],9.39
11,GTAGTGGTTGAATATACACACATATATAAATAAATA [CACACA_site7282],9.83
12,ATGTATGAATTACATAGTACATAAGAAAAAATGAAG [XGTACX_site5942],9.91
13,GGAAAATCTTTATAATGTACATTATGATTATATAAT [XGTACX_site6256],9.66
14,AAATATAAAGTGCACACACACAAAAAAAGAAAAAAA [CACACA_site6452],10.2
15,TTAAAATATGAATAATGTACAAGAAATTTTATTAAT [XGTACX_site6314],9.58
16,ATTATTACATTTTTATGTACATATCAAATTTATACA [XGTACX_site7332],9.7
17,TTAACTTAAGGAGAGTGTACAAATAATAAAATATCT [XGTACX_site4118],9.64
18,TAACCTAAAATAACTACACACACATAAAAAAAAAAA [CACACA_site8807],11.2
19,ATATTTTTTACAAATTGTACATTTTTACAATTATTA [XGTACX_site7496],9.62
20,TATAAATTAAAATGTGTGCACTAAATTGAAATAGAA,9.94
21,ATATATATATATAATAGTACATATATTTTTATTGGT [XGTACX_site711],9.65
22,TCACTTAATATTTAATGTACATAAGGTTCTTGTGCC [XGTACX_site1822],9.41
